One assay deals with T-47D breast. Kind of assay: NCI-60 one-dose screen, 48 h (100 = growth as untreated, 0 = no growth, -100 = all killed).
A further assay has as its system BT-549 breast. The assay is described as above. Particulars: 0.25 µM.

Each structure is given as a SMILES string. Some compounds were tested as several samples or in several runs, with calls that do not always agree.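 Each cell line was grown in a 96-well plate and treated with one concentration of compound for 48 hours. Values below 10 were considered active.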 The source holds more than one record for some entries. The list is limited to them. There may be further records. This drug was run again and again over the years, at the concentration stated with the values; one value stands for one run. Marks such as (2×) stand for listed records that agree.

The text below walks through data of PubChem BioAssay (NCI).

As for `COc1cccc2c1C(=O)c1c(O)c3c(c(O)c1C2=O)C[C@@](O)(C(=O)CO)C[C@@H]3OC1CC(N)C(O)C(C)O1` (stereo not given in full), the growth entry is “inactive: 16.5, 18.7 (2×), 22.3, 11.2, 23.3, 22.4 (2×), 24.1, 23.8, 20.9, 18.9, 24.6 (2×), 33.4, 30.4, 42.7, 36 (2×), 21.4 (2×), 32.9, 35, 21.8 (2×), 20.8, 21, 25.8, 24.7, 17.5, 16.7, 23.7 (2×), 23.6, 23.2, 30, 24.5, 25.6, 24.2, 24, 15.2, 12.5, 21.2, 20.2, 22.2, 20.4, 12.3, 25.9, 26.9, 33.8, 31, 13.9, 18%” in the assay with T-47D breast (0.25 µM, runs of 2018); “inactive: 23.4, 15.2, 22.2, 17.5, 23.2, 26.9, 22.3, 22.4, 27.4, 15.9, 26.4, 17.9 (2×), 23.8 (2×), 26, 26.3, 25.1, 20.6, 13.4, 17.1 (2×), 26.1 (2×), 21.9, 20.4, 22.9, 38.6, 38.1, 19.9, 29, 21.7, 22, 19.7, 13.8, 12, 12.9, 15.5, 17.4, 24.1, 19.2, 25.4, 17.7, 19.3% and active: 8.56%” in the assay with T-47D breast (0.25 µM, runs of 2019); “inactive: 19.1, 26.5, 35.7, 42.5, 25.1, 21.1, 24.6, 24.1, 19.9, 23.1, 20.7, 20.9, 26.7, 25.2, 34.4, 30.5, 20.6, 26.6 (2×), 24.3, 26.8, 21.7, 24.7, 20.5%” in the assay on T-47D breast (0.25 µM, runs of 2020); “inactive: 32.5, 26.9, 25.8 (2×), 26.4, 30 (2×), 34.2, 26.1 (2×), 29.8, 34.6, 31.4, 22.3, 25.3, 21.3, 24.6, 26, 24.4 (2×), 19.1, 22.6 (2×), 23.8, 21.6, 26.6, 15.6 (2×), 20.3, 28.5, 25.4 (2×), 21, 20, 25.1, 23.1, 25.9, 35.5, 33.4, 32.9, 29, 19.6, 33.9, 25.2, 15.9, 33.3, 17.6, 27.4, 21.2%” in the assay on T-47D breast (0.25 µM, runs of 2021); “active: -3.42%, -1.4%, 6.55% and inactive: 28.7, 21.2, 10.9, 19.1, 31.1 (2×), 30.5, 27.4, 30.1, 25.8, 12.3, 39, 56.1, 42.5, 35.7, 61.6, 25.3, 22, 19.4, 24.1%” in the assay on T-47D breast (0.25 µM, runs of 2022); “active: -44.1, -59.8, -22.1 (2×), -19.1, -40.1, -23.8, 7.83, -30.7, -26.4, -14.2 (2×), -10.2, -23, -6.71, -27.1, -29.2, -25.7, 0.128, 0.211, -14.8 (2×), -27.6, -21.1, 1.53, -17.6, -6.61, 5.75, -13.1, -22.2, -12.5, -14.1, 1.38, -6.43, -21.4, -37.3, -16.7, -18.5, -24.7, -1.8% and inactive: 19.9%, 10.6%, 10.9%” in the assay on T-47D breast (25 µM, runs of 1993). The growth entry with T-47D breast (25 µM, runs of 1994) was “active: -31.3, -5.32, -25.7, -9.73, -8.67, -10.7, -14.1, 5.9, -12.5, -7.23, -12.8, -13.2, 1.86, -19, -30.3, -11.8, -9.21, -13.5, 2.85, -18.3, -20.4, -77.3, -6.01, -65.5, -9.46, -37.4, 4.42, -43.7, -4.89, -6.53, -24.1, -20.6% and inactive: 90.6%, 19.8%”; in the assay on T-47D breast (25 µM, runs of 1995), “active: -17.9, -17.4, 0.942, -11.1, 0.0855, -14.3, -28, 3.43, -3.49, 4.36, -14.7, -6, -17, -0.978, -10.8, 3.85, -25.5, -31.7, -24, -40.1, -10.7, -23.1, -18.9, -19.9, -17.8, 1.58, -32.9, 1.7, 6.71, 7.57, -29.3, -25.1, -18.1, -17.1, -9.43, -6.34, 3.55, -12.3, -17.5, -11.8, -29.1, 1.67% and inactive: 22%”; with T-47D breast (25 µM, runs of 1996) it was “active: -11.9, -13.2, -8.86, -15.5, -4.18, -20.1, -9.76, -27.2, 8.18, -9.49, -7.45, -19.1, 3.76, -40.7, -24.7, 4.29, -15.4, -30.8, -18.6, -2.2, -31.2, -20.3, 1.28, -23, -19.7, -16.4, -20.5, -21.1, -11.1, -39.6, -10.2, -16.8, -33.7, -28.6, -49.5, -19.3, -10.7, -25.3, -21.2, -13.3, -15.9, -0.172, -11.2, -38.5, -47.1% and inactive: 11.2%, 20.8%”; in the assay on T-47D breast (25 µM, runs of 1997) it was “active: -32.7, -18.1, -27.4, -6.28, -27.5, -22.1, -9.25, -26, -18.8, -16.5, -0.781, -20.6, -30.4, -11.2, -13.8, -23, -8.85, -27.1, 3.89, -47.8, -17.1, -23.6, -2.67, -27.2, -14.1, -17.7, -22.2, -16.2, -12.7, -20.3, -3.35, -10.5, -10.6, -31.1, -4.46, -24.1, -27.3, -43.6, -24.9, -8.76% and inactive: 12.9%, 11.3%”; with T-47D breast (25 µM, runs of 1998), “active: -34.9, -37, -23.4, -26.6, -13.6 (2×), -28.8, -6.68, -24.1, 1.04, -12.9, -22.4, -1.67, -12.4, -26.3, 8.47, -31.9, -48.7, 5.69, -1.6, -49.2, -37.4% and inactive: 15.1%”; in the assay with T-47D breast (25 µM, runs of 1999) it was “active: -32.9, -2.48, -1.5, -21.6, -2.05, -47.1, -27.2, -51.6, -25, -71.3, -53.4, -14, -100, -26.8% and inactive: 19.8%”. The growth result in the assay on T-47D breast (25 µM, runs of 2000) is “active: -11.4%, -100%, 8.48%”; in the assay on BT-549 breast (runs of 2006), “inactive: 12.8%, 20.3%”; with BT-549 breast (runs of 2007), “inactive: 32.8, 47.9, 23.5, 18.4, 26, 31.9, 61.4, 64.4, 42.8, 29.8, 63.6, 35.5, 49.9, 42.7, 158, 61.8, 56.1, 63.2, 73.6, 76, 102, 73.5, 72.9, 86.7, 29, 79.8, 65.8, 65.7, 56, 44.8, 56.8, 38, 56.9, 45.7, 52.6, 44% and active: 0.447%, 0.0994%”.
